Consider 59 molecules from ChEMBL document CHEMBL1201862, “PubChem BioAssay data set” (2004).

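Five compound concentrations were applied to cells in 96-well plates for 48 hours; endpoints were derived by simple linear interpolation of the resulting dose-response curve. GI50 is the concentration that inhibits growth by half.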 Calls of active or inactive are those of the source. No stated cut-off is given here; in the data, active = GI50 up to about 1.1 µM and inactive = higher.

The test system of this assay is NCI-H322M. As to the kind of experiment: NCI tumour cell line growth inhibition, 48 h.
Take `CCOC(=O)CCCOc1cc(-c2ccccc2F)nc2cc3c(cc12)OCO3`: the GI50 was inactive: > 100 µM.

In the case of `CCOC(=O)C(C)c1c(C(=O)c2ccc(C)nc2)c2ccccc2n1C` (centres undefined), the GI50 is inactive: > 100 µM.

On to `Cc1ccc(S(=O)ON2CCC(C(=O)O)(c3ccccc3)CC2)cc1` (centres undefined), for which the GI50 is inactive: > 100 µM.

For the molecule `O=C(O)[C@H](NS(=O)(=O)c1ccc([N+](=O)[O-])cc1)c1ccccc1`, the GI50 was inactive: > 100 µM.

Consider `CC(=O)OCC1OC(SC2=NC(=O)CS2)C(OC(C)=O)C(OC(C)=O)C1OC(C)=O` (centres undefined), for which the GI50 was inactive: > 100 µM.

Take `Cc1nn(CN2CCN(C)CC2)c(=S)n1/N=C/c1ccc(-c2ccc(Cl)cc2Cl)o1`: the GI50 is inactive: > 100 µM.

Take `O=C(O)c1nn[nH]c1Cl`: the GI50 is inactive: > 100 µM.

Regarding `O=C(c1cc(=O)c2ccc(O)cc2o1)c1ccc(Cl)cc1Cl`, the GI50 was inactive: 14.8 µM.

In the case of `CNC(=O)SCC(NC(=O)CCC(N)C(=O)O)C(=O)NCC(=O)O` (centres undefined), the GI50 was inactive: > 100 µM.

Consider `Clc1ccccc1/C=C/c1nsc(/C=C/c2ccccc2Cl)n1`, for which the GI50 is inactive: > 100 µM.

As for `O=CN1CCN(C(=O)c2ccc(Cl)cc2)C1=S`, the GI50 was inactive: 15.8 µM.

On to `O=C(Cc1nc2ccc(C(=O)c3ccccc3)cc2nc1O)C(=O)Nc1ccc(C(F)(F)F)cc1[N+](=O)[O-]`, for which the GI50 was inactive: > 100 µM.

Consider `COc1cc2cc[n+]3c(C)c4cc(OC)c(OC)cc4c([O-])c3c2cc1OC`, for which the GI50 was inactive: > 100 µM.

As to `C/C=C/C(C#N)O[Si](C)(C)C` (centres undefined), the GI50 was inactive: > 100 µM.

For the molecule `CN1CCc2c1nc(-c1cccnc1)c1c2N(C)CC1`, the GI50 was inactive: > 100 µM.

On to `C=CCCCN1CCCC(C)C1=S` (centres undefined), for which the GI50 was inactive: > 100 µM.

`Cc1cc(S(=O)(=O)[N-]/C(=N/S(=O)(=O)c2cc(Cl)sc2Cl)[n+]2ccc(N(C)C)cc2)c(S)cc1Cl`: the GI50 is inactive: 45 µM.

Regarding `O=C1N/C(=N\N=C\c2ccccc2)C(c2ccccc2)O1` (centres undefined), the GI50 is inactive: 60.3 µM.

On to `COC1=CC(=O)C2=C(C[C@@]3(C)C(=C2)C(CO)=CC[C@H]3O)C1=O`, for which the GI50 was inactive: > 100 µM.

With `CCCCCC(=O)OC[n+]1cccc(-c2c(COC(=O)NC(C)C)c(COC(=O)NC(C)C)c3n2CCC3)c1`, the GI50 was inactive: > 71.6 µM.

`COc1ccc2c(c1)CCc1c-2n(CCN2CCOCC2)c2ccc(OC)cc12`: the GI50 was inactive: > 100 µM.

`Cc1c(OCc2cccc3ccccc23)ccc2c(=O)cc(SCCN3CCOCC3)oc12`: the GI50 was inactive: > 100 µM.

For `O=C(CC(C(=O)c1ccco1)c1ccsc1)c1ccco1` (centres undefined), the GI50 is inactive: > 100 µM.

Turning to `Cc1cc(N(CCC#N)S(=O)(=O)c2ccccc2)ccc1/C=N/c1ccc(C(=O)O)cc1`, the GI50 is inactive: > 40.2 µM.

`CC(C(=O)N1C(=O)N(C(=O)C(C)C(O)c2ccccc2)C2CCCCC21)C(O)c1ccccc1` (centres undefined): the GI50 is inactive: > 100 µM.

With `CC[C@H]1CN2CCc3cc(OC)c(OC)cc3[C@@H]2C[C@@H]1C[C@H]1NCCc2cc(O)c(OC)cc21`, the GI50 is active: 0.538 µM.

Consider `CN1CCCOC(c2ccc([N+](=O)[O-])cc2)O1` (centres undefined), for which the GI50 is inactive: > 100 µM.

As to `COC(=O)c1ccc(C)cc1C1CN=NC12Cc1cc(C)c(C)cc1C2=O` (centres undefined), the GI50 was inactive: > 100 µM.

On to `O=C1C(Cl)C(c2ccc([N+](=O)[O-])cc2)N1n1cnc2ccccc2c1=O` (centres undefined), for which the GI50 is inactive: 21.5 µM.

Take `C=C1Oc2nc3ccccc3c(=O)n2C1(C)C`: the GI50 is inactive: > 100 µM.

As for `O=C(c1cccc2ccccc12)N1CCC(C2CCN(C(=O)c3cccc4ccccc34)CC2)CC1`, the GI50 is inactive: > 100 µM.

Turning to `CCNC(=S)NNC(=O)CSc1nc2ccc(I)cc2c(=O)n1Cc1ccccc1`, the GI50 was inactive: 33 µM.

In the case of `O=C1/C(=C2/CCCN2)C(c2ccc[nH]2)=NN1c1ccccc1`, the GI50 is inactive: > 100 µM.

As for `COC(=O)N1C=Cc2c(c(C)c3c([nH]c4ccccc43)c2C)C1C` (centres undefined), the GI50 was inactive: 16.9 µM.

For `Cc1cc(C)c2c(c1)CSCc1cc(C)cc(C)c1-2`, the GI50 is inactive: 54 µM.

On to `C=CCn1c(-c2ccc(Cl)cc2)cs/c1=N\c1ccccc1OC`, for which the GI50 was inactive: > 100 µM.

With `CNC1=C(C)C(=O)C(C)=C(C(C)(C)CC(=O)n2cc(F)c(=O)[nH]c2=O)C1=O`, the GI50 is inactive: 17.2 µM.

`N#Cc1c(O)c(C=O)c(=O)n2c1[nH]c1ccccc12`: the GI50 was inactive: > 100 µM.

`COc1cccc(/C=C2\N=C(Cl)OC2=O)c1O`: the GI50 is inactive: > 100 µM.

`COc1cccc2c1C(=O)c1c(O)c3c(c(O)c1C2=O)C[C@@](O)(C(C)O)C[C@@H]3OC1CC(N)C(O)C(C)O1` (some centres undefined): the GI50 was inactive: 4.81 µM.

As to `COC(=O)C1CCC(=O)N1C(c1cc(OC)c(OC)c(OC)c1)c1cc(OC)c(OC)c(OC)c1` (centres undefined), the GI50 was inactive: > 100 µM.

As for `CC1=NN=C(N)N/C1=C\C(Sc1ccc(Cl)cc1)c1ccc([N+](=O)[O-])cc1` (centres undefined), the GI50 is inactive: > 100 µM.

In the case of `COc1cc(Nc2cnc3cc(N)ccc3n2)cc(OC)c1OC`, the GI50 was inactive: > 100 µM.

For the molecule `COc1ccc2oc(-c3cc4cc(OC)ccc4o3)cc2c1`, the GI50 was inactive: > 100 µM.

As to `O=C(O)C1CCCCN1C(=O)Cc1c[nH]c2ccccc12` (centres undefined), the GI50 is inactive: > 100 µM.

`O=c1c2cc([N+](=O)[O-])ccc2n2n1Cc1ccccc1C2`: the GI50 was inactive: > 100 µM.

For the molecule `Cc1cc2c(C)nn(Cc3ccccc3)c2c(C(=O)O)c1C`, the GI50 was inactive: > 100 µM.

`O=C1NC(=S)NC(=O)C1=Cc1cc2c(cc1[N+](=O)[O-])OCO2`: the GI50 was inactive: > 100 µM.

Take `CC(=O)Nc1ccc2[nH]c(C(=O)N3CC(CCl)c4c3cc([N+](=O)[O-])c3ccccc43)cc2c1` (centres undefined): the GI50 is inactive: 4.31 µM.

For `Cc1ccc(/N=N/c2ccc(O)c(CN(C)C)c2)cc1`, the GI50 is inactive: 33.7 µM.

For `O=C1c2cc3c(cc2CC12Cc1ccc4c(c1C2=O)CCC4)CCC3` (centres undefined), the GI50 was inactive: > 100 µM.

Take `CC1OC(O)CC(N(C)C)C1O.CC1OC(O)CCC1O.CCC1CC(O)c2c(O)c3c(c(O)c2C1O)C(=O)c1cccc(O)c1C3=O` (centres undefined): the GI50 was active: 0.0266 µM.

As for `O=C1NCCS(=O)(=O)N2CCC[C@@H]12`, the GI50 is inactive: > 100 µM.

`COc1ccc(C=O)c(N(C)C(=O)C(C)(C)C)c1`: the GI50 is inactive: > 100 µM.

In the case of `Cc1ccc(NCC2(/N=C/c3ccccc3)OC(CO)C(O)C2O)cc1` (centres undefined), the GI50 is inactive: > 100 µM.

Consider `C=CC1(C)CCC2C(=CCC3C(C)(COC4OC(C(=O)O)C(O)C(O)C4O)C(O)CCC23C)C1.C=CC1(C)CCC2C(=CCC3C2(C)CC(O)C(O)C3(C)COC2OC(C(=O)O)C(O)C(O)C2O)C1` (centres undefined), for which the GI50 is inactive: > 100 µM.

As for `CC1=NC(=O)CNN1C1=NNC2(C(=O)N1)c1ccccc1-c1ccccc12`, the GI50 was inactive: > 100 µM.

For `O=C(Oc1cccc(Cl)c1)c1cc2cc(CCl)ccc2oc1=O`, the GI50 was inactive: 20.5 µM.

As to `Nc1cc2c(c3ccccc13)C(CCl)CN2C(=O)c1cc2cc(NC(=O)c3cc4ccccc4o3)ccc2[nH]1` (centres undefined), the GI50 was active: 0.0167 µM.
